The target in the assay is T1, recombinant hSIRPa (Sino Biologicals, reference 11612-H08H) (human, UniProt P78324, in part).
T1 construct: also called SIRPa-His; human SIRPa-His; not shown: His tag (histidine tail)
Briefly: ELISA on immobilized SIRPa-His, peroxidase anti-human IgG, DO 450nm [panel PDL1]. On the procedure:
Method: For ELISA assay, recombinant hSIRPa (Sino Biologicals, Beijing, China; reference 11612-H08H) was immobilized on plastic at 0.5 μg/ml in carbonate buffer (pH9.2) and different modified anti-SIRPa antibodies were added to measure binding to SIRPa.
On the technique in general: An ELISA detects its analyte on a solid surface through an enzyme-linked reagent.

B1: modified anti-SIRPa HEFLB antibody with ECD of PDL1 on the light chain (antibody, human IgG4 S228P, kappa)
heavy: EVQLVQSGAEVKKPGESLRISCKASGYSFTSYWVHWVRQMPGKGLEWMGNIDPSDSDTHYSPSFQGHVTLSVDKSISTAYLQLSSLKASDTAMYYCVRGGTGTLAYFAYWGQGTLVTVSSASTKGPSVFPLAPCSRSTSESTAALGCLVKDYFPEPVTVSWNSGALTSGVHTFPAVLQSSGLYSLSSVVTVPSSSLGTKTYTCNVDHKPSNTKVDKRV[sequence of human IgG4 Fc with S228P L445P (EU numbers) omitted]
light: DVVMTQSPLSLPVTLGQPASISCRSSQSLVHSYGNTYLYWFQQRPGQSPRLLIYRVSNRFSGVPDRFSGSGSGTDFTLKISRVEAEDVGVYYCFQGTHVPYTFGGGTKVEIKRTVAAPSVFIFPPSDEQLKSGTASVVCLLNNFYPREAKVQWKVDNALQSGNSQESVTEQDSKDSTYSLSSTLTLSKADYEKHKVYACEVTHQGLSSPVTKSFNRGECGGGGSGGGGSGGGG[sequence of about 200 residues omitted]
notes: as m32, ECD of PDL1; also called VH+VLprot (PDL1); HEF + LB-PDL1
For the molecule B1, the binding result is listed as “binds”.

The values above are taken from patent publication US20210179728A1 (OSE IMMUNOTHERAPEUTICS, published 2021).
